Assay results published in PubChem BioAssay (NCI).
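Cultured in 96-well plates, cells were exposed to test compound for 48 hours across five concentrations. GI50 = concentration required for 50% inhibition of growth. TGI marks complete inhibition of growth.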

System: NCI-H322M lung
Test: inhibition of tumour cell growth, NCI panel, 48 h

NC(=Nc1ccc(OCCCCCCCCn2ccnn2)cc1)c1ccccc1
GI50: 0.63 µM | TGI: 60.7 µM

O=C(Nc1ccc(-c2ccc3c(c2)NC(=O)/C3=C\c2ccc[nH]2)cc1)Nc1cccc(Cl)c1
GI50: 2.98 µM | TGI: 20.3 µM

Clc1ccc(CNc2nc(SCCN3CCOCC3)nc3c2cnn3CC(Cl)c2ccc(Br)cc2)cc1 (stereo unspecified)
GI50: > 100 µM | TGI: > 100 µM
